# Measurements: article PMC6919601, “Identification of Plasmodium dipeptidyl aminopeptidase allosteric inhibitors by high throughput screening” (PLoS ONE, 2019)
# In all, about 110,000 compounds went through this assay and about 230 (0.21%) showed an effect of 50% or more. The list shows a part of the results.
# Biological target: DPAP1 (Plasmodium falciparum, UniProt Q8IIJ9)
# Assay: primary screen, percent inhibition; read by cleavage of a fluorogenic dipeptide substrate; higher = more effect of the substance
# Parameters: species or system P. falciparum D10 trophozoite lysates; single well
# 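Note: 30 min substrate incubation versus DMSO and 10 µM JCP410 controls.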
# DPAP1, sequence (Q8IIJ9 whole entry, looked up): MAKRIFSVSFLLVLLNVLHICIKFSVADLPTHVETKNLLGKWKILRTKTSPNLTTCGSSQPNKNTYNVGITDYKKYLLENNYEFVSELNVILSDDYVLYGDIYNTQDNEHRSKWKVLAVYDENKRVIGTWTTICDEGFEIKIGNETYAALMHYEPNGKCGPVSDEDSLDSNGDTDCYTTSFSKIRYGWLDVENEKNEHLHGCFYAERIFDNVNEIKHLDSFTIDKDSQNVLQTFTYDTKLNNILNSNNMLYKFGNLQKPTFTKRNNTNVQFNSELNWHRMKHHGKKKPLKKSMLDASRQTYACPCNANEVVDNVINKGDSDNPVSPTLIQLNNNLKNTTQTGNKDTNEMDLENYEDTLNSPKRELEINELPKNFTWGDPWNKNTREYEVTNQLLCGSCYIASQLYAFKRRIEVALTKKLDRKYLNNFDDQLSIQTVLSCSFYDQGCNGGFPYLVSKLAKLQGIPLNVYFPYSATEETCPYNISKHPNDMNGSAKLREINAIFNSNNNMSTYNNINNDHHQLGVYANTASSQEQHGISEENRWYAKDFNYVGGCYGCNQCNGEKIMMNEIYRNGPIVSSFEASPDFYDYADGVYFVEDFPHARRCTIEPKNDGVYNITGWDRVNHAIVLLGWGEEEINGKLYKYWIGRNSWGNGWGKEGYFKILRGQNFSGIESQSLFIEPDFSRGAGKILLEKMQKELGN
row,SMILES,% Inhibition @ 10 uM [%]
1,CCn1c(CO)nc2ccccc21,-2.28
2,COC(=O)c1cc(N2CCNCC2)nc2ccccc12,1.84
3,CC(C)CC(=O)n1nc(-c2ccco2)nc1NCc1ccccc1Cl,-2.92
4,COc1ccc2c(CNCC(C)c3ccccc3)c(C(=O)O)n(Cc3ccc(C)cc3)c2c1 (stereo not shown),7.63
5,COc1cc(OC)c(C2C=C(c3ccc(Cl)cc3)Nc3nnnn32)cc1OC (stereo not shown),3.32
6,Cn1ccnc1C(=O)c1ccccc1C(=O)c1ccccc1,-1.72
7,CCC(C)NC(=O)c1cc(S(=O)(=O)N2CCCCC2)c[nH]1 (stereo not shown),-8.86
8,CNS(=O)(=O)c1cn(CC(=O)N2CCOCC2)cc1S(=O)(=O)NC,-4.18
9,Cc1cccc(N(CC(=O)NCC2CCCO2)S(=O)(=O)c2ccccc2)c1C (stereo not shown),5.92
10,CN1C(=O)c2ccccc2C(C(=O)O)C1c1c[nH]c2ccccc12 (stereo not shown),-1.51
11,COc1cc(C2C(C#N)=C(N)Oc3[nH]nc(C)c32)cc(Br)c1OCc1ccccc1 (stereo not shown),-0.178
12,COc1ccc(C2NC(c3ccc(OC)c(OC)c3OC)C(C)C(=O)C2C)c(OC)c1OC (stereo not shown),-0.326
13,CC(=O)Nc1ccc2c(c1)C1C=CCC1C(C1CC=CCC1)N2 (stereo not shown),9.53
14,Cc1ccccc1CNC(=O)C1COc2ccccc2O1 (stereo not shown),-2.15
15,CN(C)CCN(C)Cc1ccccc1Sc1ccc2c(c1)OCO2,-2.65
16,CCc1ccc(-c2nc(CSCC(=O)N3CCN(CC)CC3)c(C)o2)cc1,-4.71
17,Cc1onc(-c2ccccc2Cl)c1C(=O)NCc1ccccn1,-3.09
18,CC(=O)Nc1ccc(NC(=O)c2ccc(C)c(Br)c2)cc1,-1.61
19,CCC(O)CC(c1ccccc1)c1c(O)oc2ccccc2c1=O (stereo not shown),-4.35
20,COc1ccc(N2CCN(C(=O)Nc3ccccc3)CC2)cc1,2.44
21,O=C(Nc1ccc(S(=O)(=O)N2CCCCC2)cc1)C1CCCO1 (stereo not shown),2.5
22,COc1ccc(S(=O)(=O)N(CC(=O)N(C)Cc2ccccc2)c2ccccc2)cc1,-7.63
23,Cc1ccc(C)c(S(=O)(=O)NC(C)C(=O)NCc2ccco2)c1 (stereo not shown),-3.43
24,Cc1ccc(S(=O)(=O)C2(C(=O)NC3CCCCCC3)CC2)cc1,-1.92
25,CC1(C)CC(CC#N)(c2ccccc2)CCO1 (stereo not shown),-4.35

row,SMILES,% Inhibition @ 10 uM [%]
1,O=C(c1ccccc1Cl)N1CCN(c2ncccn2)CC1,2.93
2,CC1CC2=C(CC1(CO)CO)C(C)(C)CCC2 (stereo not shown),-5.5
3,CC1CCCN(S(=O)(=O)c2ccc(NC(=O)c3ccc(Cl)cc3)cc2)C1 (stereo not shown),1.93
4,CN1C(=O)N(C)C2(O)c3ccccc3/C(=N\N=C(N)N)C12O (stereo not shown),3.34
5,COc1ccc(CN2CCN(Cc3ccc(Br)cc3)CC2)cc1,-3.13
6,Cc1ccc(N2CC(C(=O)Nc3cccc(Br)c3)CC2=O)cc1 (stereo not shown),-3.04
7,CCNC(=O)c1cc2c(=O)n3cccc(C)c3nc2n(C(C)CC)c1=N (stereo not shown),5.17
8,CCOc1ccc(N2C(=O)CC(N3CCN(c4ccccn4)CC3)C2=O)cc1 (stereo not shown),-6.36
9,Cc1ccccc1-n1nc2c(c1NC(=O)c1cccc(C(F)(F)F)c1)CS(=O)(=O)C2,-0.812
10,O=C(NCC1CCCO1)c1nnc(Cc2ccc(F)cc2)o1 (stereo not shown),-3.41
11,COc1ccccc1S(=O)(=O)Cc1ccc(C(=O)O)o1,-0.256
12,CNC(=O)CCc1nc(-c2ccc(Cl)cc2)no1,-1.35
13,CC(CS(=O)(=O)c1ccccc1)N1CCOCC1 (stereo not shown),-4.06
14,O=C(Nc1ccc2c(c1)OCCO2)c1ccc(C(=O)Nc2ccc3c(c2)OCCO3)cc1,-2.8
15,CCSC1=C(C#N)C(c2cccs2)C(C(=O)Nc2ccccc2OC)=C(C)N1 (stereo not shown),-3.74
16,CC(C)(C)NS(=O)(=O)Nc1ccccn1,7.47
17,COc1ccc(C(=O)Nc2ccc(S(=O)(=O)Nc3onc(C)c3C)cc2)cc1OC,-4.43
18,COc1cccc(NC(=O)CSc2nc3c(c(=O)n(C)c(=O)n3C)n2Cc2ccccc2F)c1,3.05
19,COc1ccccc1N(CC(=O)N1CCc2ccccc2C1)S(=O)(=O)c1ccc(C)cc1,-0.173
20,Cc1ccc(OCC(=O)Nc2ccc(F)cc2)c(Br)c1,3.83
21,O=C(c1ccc(-n2ccc3ccccc32)s1)N1CCN(c2ccccn2)CC1,-0.127
22,O=C1CSC(c2cn(-c3ccccc3)nc2-c2ccc(F)cc2)N1Cc1ccccc1 (stereo not shown),2.26
23,O=C(NCc1cccs1)c1nn2c(C(F)(F)F)cc(-c3cccs3)nc2c1Cl,-5.2
24,CCOc1ccccc1NC(=O)C(C)(C)Oc1ccc(Cl)cc1,5.66
25,CC(C)C[C@H](NC(=O)CNC(=O)c1ccccc1Cl)C(=O)NCC#N,-3.48

row,SMILES,% Inhibition @ 10 uM [%]
1,Cc1ccc2c(c1)C(SCC(=O)NCc1cccs1)CC1(CCCC1)O2 (stereo not shown),-2.72
2,Cc1cccnc1NC(=O)CCCC(=O)O,-2.26
3,CCN(CC)CCNC(=O)Cc1c(C(=O)O)n(CC)c2ccccc12,2.38
4,Clc1ccc(OCCOCCN2CCCC2)c2ccccc12,-4.91
5,COC(=O)c1ccc(C2C(C(=O)c3ccc(F)cc3)=C(O)C(=O)N2CCCC(=O)O)cc1 (stereo not shown),0.884
6,C#CCOC(=O)CCCC(=O)Nc1c(Cl)cc(Cl)cc1Cl,1.63
7,COc1cc(CNc2nc3ccccc3n2C)cc(OC)c1O,-3.52
8,CCc1ccc(CNC(=O)CN2C(=O)CSc3ncccc32)cc1,-7.02
9,CN(C)Cc1c(O)ccc2c(=O)c(Oc3ccc(Br)cc3)c(C(F)(F)F)oc12,2.95
10,CCC1CCc2nc3sc(C(=O)NCc4ccc(C)cc4)c(N)c3cc2C1 (stereo not shown),0.279
11,N#CC1=C(N)OC2=C(C(=O)CCC2)C1c1ccc(COc2ccccc2Br)o1 (stereo not shown),0.385
12,CC(C)(C)c1[nH]nc2c1C(c1c(F)cccc1Cl)C(C#N)=C(N)O2 (stereo not shown),4.52
13,CC1CCN(C2=NC(=O)/C(=C\c3ccc(Br)cc3)S2)CC1,2.64
14,COc1ccc(CN2CCN(C(=O)Cn3c(=O)c4cccn4c4cccnc43)CC2)c(OC)c1OC,-6.92
15,N=C(NCCc1c[nH]c2ccccc12)NC(=O)c1ccccc1,4.99
16,CC1(C)CC(=O)C2=C(C1)N=C1c3ccccc3C(=O)C1C2c1ccc2c(c1)OCO2 (stereo not shown),-0.171
17,NS(=O)(=O)c1ccc(NC(=O)C2CC2(c2ccccc2)c2ccccc2)cc1 (stereo not shown),-3.93
18,CCN1C(=O)C(CC(=O)Nc2cccc(C)c2C)S/C1=N\c1cccc(C(C)=O)c1 (stereo not shown),-11.4
19,CN1CCN(CCCNc2nc3ccccc3c3nc(-c4ccccc4)nn23)CC1,-6.07
20,CCCCOc1ccc(C2(C(=O)O)CCCC2)cc1,-1.46
21,Nc1nncn1C(=O)COc1ccc(Cl)cc1,0.275
22,CN1C(=O)C(=Cc2cccn2-c2ccc(S(N)(=O)=O)cc2)C(=O)N(C)C1=O,-4.98
23,CCN1C(=O)c2ccc(S(=O)(=O)c3ccc(C(=O)O)cc3)cc2C1=O,3.27
24,CC1OC(Nc2ccc(-c3ccc(NC4OC(C)C(O)C(O)C4O)cc3)cc2)C(O)C(O)C1O (stereo not shown),-5.62
25,COC(=O)c1ccc(C2CC(=O)NC3=C2C(=O)CC(C)(C)C3)cc1 (stereo not shown),-7.98

row,SMILES,% Inhibition @ 10 uM [%]
1,O=C(CSc1nc(-c2ccco2)cc(C(F)(F)F)n1)NCCc1ccccc1,-6.55
2,O=C(Nc1c2c(nn1-c1ccc(F)cc1)CS(=O)(=O)C2)C1(c2ccc(Cl)cc2)CCCC1,-9.48
3,Cc1ccc(OCC(=O)Nc2ccccc2Br)c(C)c1,-0.545
4,CC(C)CCNC(=O)Cn1c(SCc2c(F)cccc2Cl)nc2ccncc21,2.65
5,Cc1onc(-c2c(Cl)cccc2Cl)c1C(=O)N1CCCC(C)C1 (stereo not shown),-2.87
6,CCc1nnc(NC(=O)CSc2nnc(CNC(=O)c3ccccc3F)o2)s1,-3.39
7,CCOC(=O)c1cnc2nc(-c3ccccc3)nn2c1O,2.62
8,CCCCOc1ccccc1N1C(=O)C2=C(SCCS2)C1=O,10
9,C[n+]1cnc(-c2ccccc2)cc1-c1ccccc1,-2.8
10,O=C(Cc1c(O)nc2ccccc2c1O)NCCc1ccccc1,6.48
11,Cc1ccc(C2C(C#N)=C(N)Oc3c2oc(CO)cc3=O)o1 (stereo not shown),-2.78
12,Cc1cccc(NS(=O)(=O)Cc2ccccc2)n1,-1.85
13,Nc1nc(-c2cccnc2)nc(-c2cccnc2)n1,3.42
14,Cc1ccc(N(C(=O)c2ccccc2)C2CCS(=O)(=O)C2)cc1C (stereo not shown),6
15,Cc1nn(Cc2ccccc2)c(C)c1NC(=O)c1cc(-c2ccc3c(c2)OCO3)on1,-1.21
16,CCOC(=O)C1=CN(C(C)C)C=C(C(=O)OCC)C1c1ccc2c(c1)OCO2,4.99
17,O=C(NC1CCCC1)c1cc2cccc3c2n1CCS3,1.98
18,CCN1CCC(C#N)(NC(=O)[C@H](C[C@H](C)c2ccccc2OC)NC(=O)OCCC2CCCCC2)CC1,-1.5
19,COc1ccc(Cn2nnc3c(C)nnc(O)c32)cc1,2.41
20,Cc1cc(C)c(C2C(C#N)=C(N)Oc3nc(O)nc(O)c32)c(C)c1 (stereo not shown),-2.51
21,COc1ccc(N2CCN(Cc3ccccc3)CC2)cc1,1.2
22,CCCCOc1ccccc1C1C(C(=O)OC)=CN(C(C)C)C=C1C(=O)OC,-5.28
23,CCOc1ccccc1C(=O)Nc1ccc(F)c(F)c1,2.22
24,CCCNCc1c(C(=O)O)n(Cc2ccc(F)cc2Cl)c2cc(OC)ccc12,6.94
25,COC(=O)c1ccc(CSc2nn3c(SCc4ccc(C(=O)OC)cc4)nnc3s2)cc1,5.98
